PubChem BioAssay AID624172 (National Center for Advancing Translational Sciences (NCATS), 2012)
About 25 (0.007%) of roughly 380,000 compounds were called active. The inconclusive results got no clear call from the source; some entries with a clear call stand among them for comparison. Calls come from the whole dose curve; as a rule, active = well fitted activation curve with a large enough effect; inconclusive = small, poorly fitted or top-dose-only effect; inactive = no such curve, though single readings can be large or run the other way. No potency is given beside an inconclusive call; the fits are too rough.

The molecules below were run against Glucagon-like peptide 1 receptor (Homo sapiens) (UniProt P43220) (assay: qHTS of GLP-1 Receptor Agonists). Settings: HEK293 GLP-1R CRE-luciferase, luminescence, 4-6 h, cells express a hypersensitive GLP-1R form; activation: at 45.6 µM (top of the series) unless noted.
Potency is the fitted concentration of half-maximal effect; tags give direction and shape of the fitted curve.
Throughout, for activation: % of control where 0% means no effect.

Sequence of UniProt P43220 (P43220 whole entry, looked up): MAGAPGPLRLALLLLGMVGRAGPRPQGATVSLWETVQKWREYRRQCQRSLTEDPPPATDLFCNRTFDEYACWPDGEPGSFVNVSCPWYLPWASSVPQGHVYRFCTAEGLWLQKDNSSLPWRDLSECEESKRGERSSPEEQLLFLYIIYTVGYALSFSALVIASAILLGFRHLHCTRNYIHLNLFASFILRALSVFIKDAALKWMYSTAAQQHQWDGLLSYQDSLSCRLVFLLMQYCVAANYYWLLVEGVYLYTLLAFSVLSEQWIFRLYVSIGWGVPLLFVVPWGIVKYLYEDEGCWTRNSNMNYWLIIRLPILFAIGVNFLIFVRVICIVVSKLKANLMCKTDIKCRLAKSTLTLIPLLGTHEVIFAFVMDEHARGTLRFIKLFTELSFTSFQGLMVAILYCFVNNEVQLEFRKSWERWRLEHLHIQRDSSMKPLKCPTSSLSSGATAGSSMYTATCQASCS

SMILES | Potency | activation
CCC1CCc2sc(C(=O)NCC(c3ccccc3OC)N3CCCC3)cc2C1 (stereo unspecified) | inactive | –
CCOc1cc(/C=N/O)ccc1OCc1ccc(F)cc1 | inconclusive [activator, single point] | –
COc1ccc(N(CC(=O)N/N=C(\C)c2ccc(OC)c(OC)c2)S(=O)(=O)c2ccccc2)cc1 | inconclusive [activator, partial curve, poor fit] | –
COc1ccc(/C=C2\N=C3CCCCCN3C2=O)cc1OC | inconclusive [activator, single point] | –
COc1ccc(/C=N/OCC(=O)Nc2cc(C)on2)cc1OC | inconclusive [activator, partial curve, poor fit] | –
C=CCOC(=O)C1=C(C)Nc2nnnn2C1c1cccc(OC)c1OC (stereo unspecified) | inconclusive [activator, partial curve] | –
O=C1OC(N2C(=O)CC[C@H]2C(=O)Nc2ccc(Br)cc2F)c2ccccc21 (stereo partly specified) | inactive | –
CCOC(=O)c1c(NC(=O)CSc2nc3cc(Cl)ccc3c(=O)n2Cc2ccco2)sc(C(=O)N(C)C)c1C | inconclusive [activator, full curve, poor fit] | –
CC(CCc1ccc(O)cc1)NC(c1ccccc1)c1ccc(Cl)cc1 (stereo unspecified) | inconclusive [activator, single point] | –
COc1ccccc1/C=C/C1C(C(=O)OCC(C)C)=C(C)N=C2SCCC(=O)N21 (stereo unspecified) | inconclusive [activator, single point] | –
COc1ccc([N+](=O)[O-])cc1NCc1ccccc1 | inconclusive [activator, single point] | –
COc1cccc(/C=C/C(=O)Nc2ccc(N3CCOCC3)cc2)c1OC | – | inconclusive: 47.4% [activator]
O=c1cc(N2CCCCC2)c(-c2ccccc2)nn1Cc1ccccc1 | inconclusive [activator, partial curve, poor fit] | –
CCC1=NN(C(=O)CCc2ccc3c(c2)OCO3)C(O)(C(F)(F)F)C1 (stereo unspecified) | inactive | –
CCOC(=O)c1cccc(-c2c(-c3ccccc3)ncc3cc(OC)c(OC)cc23)c1 | inconclusive [activator, full curve, poor fit] | –
Cn1c(=O)n(C)c2cc(S(=O)(=O)Nc3ccccc3C(=O)O)ccc21 | inactive | –
CC(C)(C)CNC(=O)C1(C)CCN1C(=O)C1(c2ccccc2)CC1 (stereo unspecified) | inactive | –
COc1cccc(CNC(=O)C(C)n2ccc3cc(S(=O)(=O)N4CCCC4)ccc32)c1 (stereo unspecified) | inactive | –
Cc1ccc(C#CC[N+]2(CC#Cc3ccc(C)cc3)CCCCC2)cc1 | inactive | –
Clc1ccccc1-c1ncnc2ccc(Br)cc12 | inconclusive [activator, partial curve, poor fit] | –
C=C[C@@]1(C)CC(=O)[C@]2(O)[C@@]3(C)[C@@H](O)CCC(C)(C)[C@@H]3[C@H](O)[C@H](OC(C)=O)[C@@]2(C)O1 | active: 1.26 µM | –
Cc1cccnc1NC(=O)c1cc2c(=O)oc3ccccc3c2s1 | inconclusive [activator, single point] | –

SMILES | Potency | activation
Cc1nc(Nc2ccccc2)sc1C(=O)c1ccccc1 | inconclusive [activator, partial curve, poor fit] | –
CCOC(=O)c1ccc2c(c1)nc(SCC(=O)NC(C)C)n2CC | inconclusive [activator, partial curve, poor fit] | –
COc1cccc(Cn2c3ccc(NC(=O)Cc4cc(OC)ccc4OC)cc3c(=O)n2C)c1 | inactive | –
CCN(CC)c1ncnc2c1sc1nc(C)cc(C)c12 | inconclusive [activator, single point] | –
Cc1cccnc1NC(=O)CCNS(=O)(=O)c1ccc2c(c1)c(=O)n(C)c(=O)n2C | inconclusive [activator, single point] | –
NC(=O)c1c(NC(=O)COC(=O)c2ccc(S(=O)(=O)Nc3ccccc3)cc2)sc2c1CCCC2 | inactive | –
Cc1cccc(OCCNS(=O)(=O)c2ccc(Cl)cc2)c1 | inactive | –
COn1c(SC2CCCCC2)nc2ccccc2c1=O | inconclusive [activator, partial curve, poor fit] | –
Cc1c(N=C/C=C2/N(C)c3ccccc3C2(C)C)c(=O)n(-c2ccccc2)n1C | inconclusive [activator, partial curve, poor fit] | –
Cc1nc(N)sc1-c1csc(Nc2ccc(Cl)cn2)n1 | inconclusive [activator, partial curve, poor fit] | –
COc1ccccc1S(=O)(=O)Nc1ccc(S(=O)(=O)Nc2nccs2)cc1 | inactive | –
COC(=O)c1c(NC(=O)Cc2cccs2)sc(C)c1C | inconclusive [activator, partial curve] | –
COc1ccc(-c2cc(C(=O)N(C)Cc3ccccc3)no2)cc1OC | inconclusive [activator, partial curve, poor fit] | –
COc1ccc(NC(=S)NN(C)C(=S)Nc2ccc(OC)cc2)cc1 | inconclusive [activator, partial curve, poor fit] | –
Cc1ccc(OCC(=O)N2CCCCC2)c(Br)c1 | inconclusive [activator, single point] | –
COc1ccc(CN(C)C(=O)c2ccc(NS(=O)(=O)c3ccc(C)c([N+](=O)[O-])c3)cc2)c(OC)c1OC | inconclusive [activator, single point] | –
Cc1[nH]c2ccccc2c1C(=O)C(=O)N1c2ccccc2CC1C (stereo unspecified) | inactive | –
COc1ccc(-c2cc(NC=O)c3ncc(-c4cccc(C(C)=O)c4)n3c2)cc1 | inconclusive [activator, partial curve] | –
COc1ccc(COc2ccccc2C(=O)NCc2ccccc2)cc1F | inconclusive [activator, single point] | –
CCCCCn1c(Sc2nc3ccccc3s2)nc2c1c(=O)[nH]c(=O)n2C | inconclusive [activator, partial curve, poor fit] | –
CN1CCN(CCC(=O)N2c3ccccc3Sc3ccc(Cl)cc32)CC1 | inactive | –
Nc1nc(Nc2cccc(Cl)c2)nc(NCc2ccco2)c1[N+](=O)[O-] | inconclusive [activator, partial curve, poor fit] | –

SMILES | Potency | activation
COC(=O)CSc1nc2c(c(=O)n(C)c(=O)n2C)n1CCC(C)C | inconclusive [activator, partial curve, poor fit] | –
COC(=O)CCCNC(=O)OCc1ccc([N+](=O)[O-])cc1 | inactive | –
COc1ccc(-c2cc(-c3ccc(N)cc3)nc(N)c2C#N)cc1OC | inconclusive [activator, partial curve] | –
CC=CCn1c(SCc2ccccc2)nc2c1c(=O)[nH]c(=O)n2C | inconclusive [activator, partial curve, poor fit] | –
CC(Sc1ncnc2sccc12)C(=O)Nc1ccc(S(N)(=O)=O)cc1 (stereo unspecified) | inconclusive [activator, partial curve, poor fit] | –
COc1cc(OC)cc(-c2cc3ccc(F)cc3cn2)c1 | inconclusive [activator, single point] | –
S=C(NCCc1ccccc1)N/N=C/c1c(Cl)cccc1Cl | inconclusive [activator, single point] | –
CCN(CC)S(=O)(=O)c1ccc(NN)nc1 | inactive | –
COc1ccc(/C=C/C(=O)Nc2ccc(-n3nncc3-c3ccc(OC)c(OC)c3)cc2)cc1OC | inconclusive [activator, partial curve, poor fit] | –
COc1ccccc1N1CCN(Cc2cn[nH]c2-c2ccc(F)cc2)CC1 | inactive | –
CCCC(C(=O)NC1CCCCC1)N(Cc1ccco1)C(=O)CNS(=O)(=O)c1ccccc1 (stereo unspecified) | inactive | –
COc1ccc(-c2ccc(C(=O)NCc3ccccc3)c3occc23)c(C)c1 | inactive | –
COc1ccc(/C=C/C(=O)N2CCCc3ccccc32)c(OC)c1 | inconclusive [activator, single point] | –
O=C1CN(C(=O)/C=C/c2cccc(Cl)c2)c2ccccc2N1 | inconclusive [activator, partial curve, poor fit] | –
CCCN(CCC)S(=O)(=O)c1cccc(-c2csc(C)n2)c1 | inconclusive [activator, partial curve, poor fit] | –
CC(C)(C)C1CCC(=O)N(CCOc2ccccc2)CC1 (stereo unspecified) | inconclusive [activator, single point] | –
CCOC(=O)c1c(C)n(C)c2ccc(OC)c(NC(=O)CN3CCC4(CC3)OCCO4)c12 | inconclusive [activator, single point] | –
COc1ccc(C(=O)NCCSCc2ccccc2Cl)cc1OC | inconclusive [activator, single point] | –
COc1ccc(CCNc2nc(Cl)nc(NC(C)(C)CO)n2)cc1OC | inconclusive [activator, partial curve, poor fit] | –
O=[N+]([O-])c1ccc2c(c1)ncn2-c1ccccc1 | inconclusive [activator, partial curve] | –
COc1ccc(-c2nc3cc(C)ccn3c2NC(=O)c2ccc(F)cc2)cc1 | inactive | –
COc1ccc(-c2cc(NC=O)c3ncc(-c4ccc(C(C)=O)cc4)n3c2)cc1OC | inconclusive [activator, partial curve, poor fit] | –
